# This is one part of the list.
# Target: T1, MBP-FoxP1dN (Mus musculus, UniProt P58462 326-579)
# T1 sequence: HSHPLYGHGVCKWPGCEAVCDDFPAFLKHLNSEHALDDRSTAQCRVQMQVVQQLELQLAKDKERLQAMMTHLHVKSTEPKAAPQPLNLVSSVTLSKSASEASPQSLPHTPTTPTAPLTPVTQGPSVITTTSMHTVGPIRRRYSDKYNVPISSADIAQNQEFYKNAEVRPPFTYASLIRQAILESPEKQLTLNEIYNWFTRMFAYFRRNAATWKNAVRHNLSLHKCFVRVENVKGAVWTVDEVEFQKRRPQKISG
# Assay: PD-seq (MBP pull-down with sequencing); 20 mM Tris-HCl pH 7.5, 100 mM NaCl, 1.5 mM MgCl2, 0.4 uM protein, 0.1 uM dsDNA library, 30 min, room temperature, amylose pull-down; high values mean tight binding
# Conditions: protein: recombinant; tags: His6-MBP; chain copies: 2; dsDNA, one strand shown
# How it was run: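 In Tris pH 7.5 buffer with NaCl and MgCl2, 0.4 µM His6-MBP-tagged mouse FoxP3 or FoxP1 fragment lacking the N-terminus, from E. coli, met 0.1 µM Klenow-filled double-stranded degenerate DNA library for 30 min at room temperature. Three washes on amylose resin followed capture of the complexes, then proteinase K release of DNA, PCR barcoding and Illumina sequencing. Binding is taken as pooled-replicate reads-per-million enrichment of pull-down relative to input.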
row,Sequence,binding signal
1,GATGATTGTTCTCCCAGCTGATGAATTGTGGACCTCGAGTAAACAAATTTTCCTAATCTTTCTGTTCAAGCGCCATCTAC,0.924 RPM ratio (pull-down/input)
2,GATGATTGTTCTCCCAGCTGATGAATTTTATCTATCGAGTAAACAAATTTTCCTAATCTTTCTGTTCAAGCGCCATCTAC,0.92 RPM ratio (pull-down/input)
3,GATGATTGTTCTCCCAGCTGATGAATTGGTCAACTCGAGTAAACAAATTTTCCTAATCTTTCTGTTCAAGCGCCATCTAC,1.04 RPM ratio (pull-down/input)
4,GATGATTGTTCTCCCAGCTGATGAATTCGTTTTCTCGAGTAAACAAATTTTCCTAATCTTTCTGTTCAAGCGCCATCTAC,0.901 RPM ratio (pull-down/input)
5,GATGATTGTTCTCCCAGCTGATGAATTCTTTTTCTCGAGTAAACAAATTTTCCTAATCTTTCTGTTCAAGCGCCATCTAC,0.884 RPM ratio (pull-down/input)
6,GATGATTGTTCTCCCAGCTGATGAATTTTGGTGTTCGAGTAAACAAATTTTCCTAATCTTTCTGTTCAAGCGCCATCTAC,1.07 RPM ratio (pull-down/input)
7,GATGATTGTTCTCCCAGCTGATGAATTTGAGCATTCGAGTAAACAAATTTTCCTAATCTTTCTGTTCAAGCGCCATCTAC,1.11 RPM ratio (pull-down/input)
8,GATGATTGTTCTCCCAGCTGATGAATTTAACGCGTCGAGTAAACAAATTTTCCTAATCTTTCTGTTCAAGCGCCATCTAC,0.987 RPM ratio (pull-down/input)
9,GATGATTGTTCTCCCAGCTGATGAATTCGCATCATCGAGTAAACAAATTTTCCTAATCTTTCTGTTCAAGCGCCATCTAC,1.43 RPM ratio (pull-down/input)
10,GATGATTGTTCTCCCAGCTGATGAATTCTCCGTATCGAGTAAACAAATTTTCCTAATCTTTCTGTTCAAGCGCCATCTAC,0.923 RPM ratio (pull-down/input)
11,GATGATTGTTCTCCCAGCTGATGAATTTATTAGATCGAGTAAACAAATTTTCCTAATCTTTCTGTTCAAGCGCCATCTAC,1.07 RPM ratio (pull-down/input)
12,GATGATTGTTCTCCCAGCTGATGAATTTTGGTCATCGAGTAAACAAATTTTCCTAATCTTTCTGTTCAAGCGCCATCTAC,0.927 RPM ratio (pull-down/input)
13,GATGATTGTTCTCCCAGCTGATGAATTCACTTTATCGAGTAAACAAATTTTCCTAATCTTTCTGTTCAAGCGCCATCTAC,0.944 RPM ratio (pull-down/input)
14,GATGATTGTTCTCCCAGCTGATGAATTATAAAGTTCGAGTAAACAAATTTTCCTAATCTTTCTGTTCAAGCGCCATCTAC,1.04 RPM ratio (pull-down/input)
15,GATGATTGTTCTCCCAGCTGATGAATTAAGATAGTCGAGTAAACAAATTTTCCTAATCTTTCTGTTCAAGCGCCATCTAC,0.919 RPM ratio (pull-down/input)
16,GATGATTGTTCTCCCAGCTGATGAATTATGGCAGTCGAGTAAACAAATTTTCCTAATCTTTCTGTTCAAGCGCCATCTAC,0.946 RPM ratio (pull-down/input)
17,GATGATTGTTCTCCCAGCTGATGAATTCGACCAGTCGAGTAAACAAATTTTCCTAATCTTTCTGTTCAAGCGCCATCTAC,0.754 RPM ratio (pull-down/input)
18,GATGATTGTTCTCCCAGCTGATGAATTCTAACGATCGAGTAAACAAATTTTCCTAATCTTTCTGTTCAAGCGCCATCTAC,0.877 RPM ratio (pull-down/input)
19,GATGATTGTTCTCCCAGCTGATGAATTAGGTCAATCGAGTAAACAAATTTTCCTAATCTTTCTGTTCAAGCGCCATCTAC,1 RPM ratio (pull-down/input)
20,GATGATTGTTCTCCCAGCTGATGAATTACAGCGATCGAGTAAACAAATTTTCCTAATCTTTCTGTTCAAGCGCCATCTAC,1.16 RPM ratio (pull-down/input)
21,GATGATTGTTCTCCCAGCTGATGAATTAAAAAAGTCGAGTAAACAAATTTTCCTAATCTTTCTGTTCAAGCGCCATCTAC,0.843 RPM ratio (pull-down/input)

row,Sequence,binding signal
1,GATGATTGTTCTCCCAGCTGATGAATTGCGTGATTCGAGTAAACAAATTTTCCTAATCTTTCTGTTCAAGCGCCATCTAC,1.21 RPM ratio (pull-down/input)
2,GATGATTGTTCTCCCAGCTGATGAATTCTTCGTGTCGAGTAAACAAATTTTCCTAATCTTTCTGTTCAAGCGCCATCTAC,0.867 RPM ratio (pull-down/input)
3,GATGATTGTTCTCCCAGCTGATGAATTCAGGATCTCGAGTAAACAAATTTTCCTAATCTTTCTGTTCAAGCGCCATCTAC,0.795 RPM ratio (pull-down/input)
4,GATGATTGTTCTCCCAGCTGATGAATTACCAACATCGAGTAAACAAATTTTCCTAATCTTTCTGTTCAAGCGCCATCTAC,1.94 RPM ratio (pull-down/input)
5,GATGATTGTTCTCCCAGCTGATGAATTTAGCTACTCGAGTAAACAAATTTTCCTAATCTTTCTGTTCAAGCGCCATCTAC,0.924 RPM ratio (pull-down/input)
6,GATGATTGTTCTCCCAGCTGATGAATTGTGTGACTCGAGTAAACAAATTTTCCTAATCTTTCTGTTCAAGCGCCATCTAC,1.1 RPM ratio (pull-down/input)
7,GATGATTGTTCTCCCAGCTGATGAATTACCTGTTTCGAGTAAACAAATTTTCCTAATCTTTCTGTTCAAGCGCCATCTAC,1.12 RPM ratio (pull-down/input)
8,GATGATTGTTCTCCCAGCTGATGAATTAACGTGTTCGAGTAAACAAATTTTCCTAATCTTTCTGTTCAAGCGCCATCTAC,1.02 RPM ratio (pull-down/input)
9,GATGATTGTTCTCCCAGCTGATGAATTTTGGAGGTCGAGTAAACAAATTTTCCTAATCTTTCTGTTCAAGCGCCATCTAC,0.772 RPM ratio (pull-down/input)
10,GATGATTGTTCTCCCAGCTGATGAATTGTCTTTATCGAGTAAACAAATTTTCCTAATCTTTCTGTTCAAGCGCCATCTAC,1.18 RPM ratio (pull-down/input)
11,GATGATTGTTCTCCCAGCTGATGAATTCCCAAATTCGAGTAAACAAATTTTCCTAATCTTTCTGTTCAAGCGCCATCTAC,0.936 RPM ratio (pull-down/input)
12,GATGATTGTTCTCCCAGCTGATGAATTTGTAGAATCGAGTAAACAAATTTTCCTAATCTTTCTGTTCAAGCGCCATCTAC,1.08 RPM ratio (pull-down/input)
13,GATGATTGTTCTCCCAGCTGATGAATTACTCGGGTCGAGTAAACAAATTTTCCTAATCTTTCTGTTCAAGCGCCATCTAC,0.857 RPM ratio (pull-down/input)
14,GATGATTGTTCTCCCAGCTGATGAATTGGATTTTTCGAGTAAACAAATTTTCCTAATCTTTCTGTTCAAGCGCCATCTAC,0.854 RPM ratio (pull-down/input)
15,GATGATTGTTCTCCCAGCTGATGAATTCGATGACTCGAGTAAACAAATTTTCCTAATCTTTCTGTTCAAGCGCCATCTAC,0.877 RPM ratio (pull-down/input)
16,GATGATTGTTCTCCCAGCTGATGAATTATTACACTCGAGTAAACAAATTTTCCTAATCTTTCTGTTCAAGCGCCATCTAC,1.18 RPM ratio (pull-down/input)
17,GATGATTGTTCTCCCAGCTGATGAATTGACCGACTCGAGTAAACAAATTTTCCTAATCTTTCTGTTCAAGCGCCATCTAC,0.924 RPM ratio (pull-down/input)
18,GATGATTGTTCTCCCAGCTGATGAATTAGAAACCTCGAGTAAACAAATTTTCCTAATCTTTCTGTTCAAGCGCCATCTAC,0.823 RPM ratio (pull-down/input)
19,GATGATTGTTCTCCCAGCTGATGAATTCAGAACGTCGAGTAAACAAATTTTCCTAATCTTTCTGTTCAAGCGCCATCTAC,0.84 RPM ratio (pull-down/input)
20,GATGATTGTTCTCCCAGCTGATGAATTAGACGTATCGAGTAAACAAATTTTCCTAATCTTTCTGTTCAAGCGCCATCTAC,1.02 RPM ratio (pull-down/input)
21,GATGATTGTTCTCCCAGCTGATGAATTTGGCTAGTCGAGTAAACAAATTTTCCTAATCTTTCTGTTCAAGCGCCATCTAC,0.843 RPM ratio (pull-down/input)

row,Sequence,binding signal
1,GATGATTGTTCTCCCAGCTGATGAATTTTCCGGGTCGAGTAAACAAATTTTCCTAATCTTTCTGTTCAAGCGCCATCTAC,0.769 RPM ratio (pull-down/input)
2,GATGATTGTTCTCCCAGCTGATGAATTTAAGGGGTCGAGTAAACAAATTTTCCTAATCTTTCTGTTCAAGCGCCATCTAC,0.802 RPM ratio (pull-down/input)
3,GATGATTGTTCTCCCAGCTGATGAATTATTCTCCTCGAGTAAACAAATTTTCCTAATCTTTCTGTTCAAGCGCCATCTAC,0.985 RPM ratio (pull-down/input)
4,GATGATTGTTCTCCCAGCTGATGAATTTACCAACTCGAGTAAACAAATTTTCCTAATCTTTCTGTTCAAGCGCCATCTAC,1.28 RPM ratio (pull-down/input)
5,GATGATTGTTCTCCCAGCTGATGAATTCCGGAACTCGAGTAAACAAATTTTCCTAATCTTTCTGTTCAAGCGCCATCTAC,0.816 RPM ratio (pull-down/input)
6,GATGATTGTTCTCCCAGCTGATGAATTCACATCGTCGAGTAAACAAATTTTCCTAATCTTTCTGTTCAAGCGCCATCTAC,0.935 RPM ratio (pull-down/input)
7,GATGATTGTTCTCCCAGCTGATGAATTCCGCGTTTCGAGTAAACAAATTTTCCTAATCTTTCTGTTCAAGCGCCATCTAC,0.884 RPM ratio (pull-down/input)
8,GATGATTGTTCTCCCAGCTGATGAATTATGACGCTCGAGTAAACAAATTTTCCTAATCTTTCTGTTCAAGCGCCATCTAC,1.09 RPM ratio (pull-down/input)
9,GATGATTGTTCTCCCAGCTGATGAATTGACCACATCGAGTAAACAAATTTTCCTAATCTTTCTGTTCAAGCGCCATCTAC,1.1 RPM ratio (pull-down/input)
10,GATGATTGTTCTCCCAGCTGATGAATTATGTGCTTCGAGTAAACAAATTTTCCTAATCTTTCTGTTCAAGCGCCATCTAC,1.09 RPM ratio (pull-down/input)
11,GATGATTGTTCTCCCAGCTGATGAATTTACAGAATCGAGTAAACAAATTTTCCTAATCTTTCTGTTCAAGCGCCATCTAC,1.48 RPM ratio (pull-down/input)
12,GATGATTGTTCTCCCAGCTGATGAATTTTCACTCTCGAGTAAACAAATTTTCCTAATCTTTCTGTTCAAGCGCCATCTAC,0.782 RPM ratio (pull-down/input)
13,GATGATTGTTCTCCCAGCTGATGAATTATCCCGGTCGAGTAAACAAATTTTCCTAATCTTTCTGTTCAAGCGCCATCTAC,0.916 RPM ratio (pull-down/input)
14,GATGATTGTTCTCCCAGCTGATGAATTTCCTTGTTCGAGTAAACAAATTTTCCTAATCTTTCTGTTCAAGCGCCATCTAC,0.868 RPM ratio (pull-down/input)
15,GATGATTGTTCTCCCAGCTGATGAATTTGGTACGTCGAGTAAACAAATTTTCCTAATCTTTCTGTTCAAGCGCCATCTAC,0.997 RPM ratio (pull-down/input)
16,GATGATTGTTCTCCCAGCTGATGAATTCTCCACCTCGAGTAAACAAATTTTCCTAATCTTTCTGTTCAAGCGCCATCTAC,0.779 RPM ratio (pull-down/input)
17,GATGATTGTTCTCCCAGCTGATGAATTGGCCTGATCGAGTAAACAAATTTTCCTAATCTTTCTGTTCAAGCGCCATCTAC,0.759 RPM ratio (pull-down/input)
18,GATGATTGTTCTCCCAGCTGATGAATTTCGGCTGTCGAGTAAACAAATTTTCCTAATCTTTCTGTTCAAGCGCCATCTAC,0.82 RPM ratio (pull-down/input)
19,GATGATTGTTCTCCCAGCTGATGAATTTTCTGTATCGAGTAAACAAATTTTCCTAATCTTTCTGTTCAAGCGCCATCTAC,1.08 RPM ratio (pull-down/input)
20,GATGATTGTTCTCCCAGCTGATGAATTCTATAAGTCGAGTAAACAAATTTTCCTAATCTTTCTGTTCAAGCGCCATCTAC,0.915 RPM ratio (pull-down/input)
21,GATGATTGTTCTCCCAGCTGATGAATTTCCGTCCTCGAGTAAACAAATTTTCCTAATCTTTCTGTTCAAGCGCCATCTAC,0.797 RPM ratio (pull-down/input)
